From PubChem BioAssay (NCATS) come the findings set out here.

SMILES strings stand for the structures. This is one part of the list. The main result of the screen is listed elsewhere. These columns were measured beside it and carry no call. Compounds called inactive in the main read-out are mostly missing here. Words in brackets tell the shape of the fitted curve; partial curves, single points and poor fits give uncertain potencies.
Tags describe the fitted curve by direction and shape.

A short description of one assay: qHTS Assay for Lipid Storage Modulators (AID 1519). To be noted: Drosophila S3 cells, BODIPY lipid droplet/cell ratio, laser cytometry; measured here: cell number channel AC50; cells loaded with oleic acid. Put shortly:
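Cells seeded at 5,000 per well were treated with compounds over a concentration series and loaded with oleic acid (400 uM, as added). Lipid droplet fluorescence (488 nm excitation, 500-530 nm channel) was read by laser-scanning cytometry and normalized to 20 uM Triacsin C.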
A general note: Quantitative high-throughput screening tests each substance at several concentrations.
One may read the AC50 as the midpoint of the concentration-response curve, whichever way the signal moves. With `COc1cc2nc(N3CCN(C(=O)[C@H]4CCCO4)CC3)nc(N)c2cc1OC`, the AC50 is 28.2 µM [rising, partial curve].

`C[C@H](N=C(NC#N)Nc1ccncc1)C(C)(C)C`: the concentration at half-maximal activity (AC50) was 28.2 µM [rising, partial curve, poor fit]. With `Cn1c(=O)c(-c2ccc(Cl)cc2)nc2cncnc21`, the AC50 was 4.47 µM [rising, partial curve]. Same read-out and setting: in the case of `COCCn1c(=O)c(-c2cccs2)nc2cnc(Oc3cccc(Cl)c3)nc21` it was 0.891 µM [rising, full curve]; in that of `COCCn1c(=O)c(-c2cccc(C#N)c2)nc2cnc(N3CCOCC3)nc21`, 0.891 µM [rising, full curve, poor fit].

Still in this assay, the particulars now being: Drosophila S3 cells, BODIPY lipid droplet/cell ratio, laser cytometry; measured here: lipid (BODIPY) channel AC50; cells loaded with oleic acid.
As for `NS(=O)(=O)c1cc2c(cc1Cl)NC(C(Cl)Cl)NS2(=O)=O` (stereo not given), the AC50 was 5.01 µM [rising, full curve, poor fit].

In the case of `CC(=O)OC(C)(C)C1Cc2cc3ccc(=O)oc3cc2O1` (stereo not given), the AC50 is 4.47 µM [rising, full curve, poor fit].

In the case of `CC(=O)N1CCC2(CC1)CCN(C(c1ccccc1)c1ccccc1)CC2`, the AC50 is 28.2 µM [rising, partial curve, poor fit]. Same read-out and setting: in the case of `CN(C)Cc1ccccc1-c1cncnc1Nc1ccc(F)cc1` it was 15.8 µM [rising, partial curve]. Same read-out and setting: under `CC1OC(OCC2OC(Oc3c(-c4ccc(OCCO)c(OCCO)c4)oc4cc(OCCO)cc(O)c4c3=O)C(O)C(O)C2O)[C@@H](O)C(O)C1O` (stereo not given in full) stands 39.8 µM [rising, single point]. Regarding `O=C(c1csnn1)N1CCC2(CCN(Cc3nccs3)CC2)CC1`, the concentration at half-maximal activity (AC50) was 0.0398 µM [rising, full curve, poor fit].

For `COCCn1c(=O)c(CCc2ccccc2)nc2cnc(OCc3ccccc3)nc21`, the AC50 was 3.16 µM [rising, partial curve, poor fit]. Same read-out and setting: in the case of `OC1C=C2CCN3Cc4cc5c(cc4C(C1O)C23)OCO5` (stereo not given) it was 17.8 µM [rising, single point]; in that of `C=CCCCCCCCCCCCC(O)CC(O)COC(C)=O` (stereo not given) (tested in a mixture with another compound), 0.178 µM [rising, full curve, poor fit]. The same measure, in the same setting: under `CN(C)CCC(c1ccccc1)c1ccccn1` (stereo not given) stands 7.08 µM [falling, full curve, poor fit]. For the compound `Oc1ccc2c(c1)OCC1c3cc4c(cc3OC21)OCO4` (stereo not given), the AC50 is 14.1 µM [rising, partial curve, poor fit]. Regarding `Cn1c(=O)[nH]c(=O)c2[nH]cnc21`, the AC50 was 39.8 µM [rising, single point]. Regarding `OCCN1CC(O)C(O)C(O)C1CO` (stereo not given), the concentration at half-maximal activity (AC50) is 39.8 µM [rising, single point]. The same measure, in the same setting: in the case of `COc1ccc(-n2c(=O)c(C)nc3cncnc32)cc1` it was 0.0501 µM [rising, full curve, poor fit]; in that of `Cc1noc(C)c1-c1cncnc1NC1CC1`, 31.6 µM [rising, partial curve]; in that of `CN(C)C(=O)c1ccc(-c2cncnc2NCCN2CCOCC2)cc1`, 35.5 µM [rising, partial curve, poor fit]. Still for that read-out and setting: under `CNc1ncnc2ccc(-c3ccc4c(c3)OCO4)cc12` stands 1.26 µM [rising, full curve, poor fit].

Turning to `c1ccc(Nc2ncnc3ccc(-c4ccoc4)cc23)cc1`, the AC50 was 0.00631 µM [rising, full curve, poor fit]. Regarding `COc1ccccc1CCn1c(=O)c(-c2cccs2)nc2cncnc21`, the half-maximal activity concentration (AC50) was 0.562 µM [rising, partial curve]. On the same count and under the same terms, in the case of `CC(=O)N1CCC2(CC1)CCN(c1ccccc1)CC2` it was 39.8 µM [rising, single point]; in that of `COc1ncc2nc(-c3ccc(Cl)cc3)c(=O)n(C)c2n1`, 0.0631 µM [rising, full curve, poor fit]. On the same count and under the same terms, in the case of `COc1ccc(-c2cc(=O)c3ccccc3o2)cc1OC` it was 0.00794 µM [rising, full curve, poor fit]. For the compound `CCCN1CC(CSC)C[C@H]2c3cccc4[nH]cc(c34)C[C@H]21` (stereo not given in full), the AC50 was 17.8 µM [rising, single point]. As for `N#CCCn1c(=O)c(-c2ccc(Cl)cc2)nc2cnc(N3CCNCC3)nc21`, the half-maximal activity concentration (AC50) was 5.01 µM [rising, full curve, poor fit]. Regarding `CC(C)CN1CCCC2(CCN(C(=O)c3ccco3)CC2)C1`, the AC50 is 2.82 µM [rising, partial curve, poor fit].
